For the experiment, the system named is 931267-113-T-J1-PDC KRAS spheroid with HUVEC/MSC, viability. The experiment can be described thus: Anticancer human tumor 931267-113-T-J1-PDC patient-derived colon adenocarcinoma cell line growth inhibition [KRAS2]. The following applies: for viability, T/C: stronger effect = lower value; for IC50: compound alone, run of 08/19/2021. The text has this:
Multicellular complex tumor spheroid response to RAS pathway inhibitors in combination with a targeted agents in patient-derived cell lines with oncogenic KRAS variants from multiple cancer types
A high-throughput screen of multi-cell type tumor spheroids was designed to identify active combinations of targeted small molecules and KRAS pathway inhibitors. Complex spheroids include a stromal component modeled by human endothelial cells (HUVEC) and fibroblasts modeled by human mesenchymal stem cells (MSCs). The concentration ranges selected for each drug and investigational agent were based upon clinically achievable concentrations if the clinical Cmax of the agent was known.
Compounds. The drugs and investigational agents: BI-3406 (NSC825286), BAY-293 (NSC824723), batoprotafib (TNO155; NSC825523), sotorasib (AMG 510; NSC818433), MRTX1257 (NSC819558), elimusertib (BAY 1895344; NSC800525), molibresib (GSK525762; NSC774829), temuterkib (LY3214996; NSC803410), venetoclax (NSC766270), alisertib (NSC759677), olaparib (NSC753686), talazoparib (NSC767125), erdafitinib (NSC781556), ipatasertib (NSC767898), cabozantinib (NSC761068), nintedanib (NSC756659), abemaciclib (NSC768073), docetaxel (NSC628503), trametinib (NSC758246), and sapanisertib (NSC764658) were obtained from the National Cancer Institute (NCI) Developmental Therapeutics Program Chemical Repository. The FDA-approved anticancer drug set is available from the Developmental Therapeutics Program. […] The stock solutions were prepared in dimethyl sulfoxide (DMSO, Sigma-Aldrich, St. Louis, MO, cat. D2650) at 800-fold the tested concentration and stored at -70 degrees C prior to their use. All drugs and investigational agents were tested over a range starting from a high concentration at or near the clinical Cmax and decreasing in half-log increments. If the clinical Cmax for an agent had not been determined, the highest concentration tested was 10 microM.
Cell Culture. All cells were maintained in an incubator at 37 degrees C and 5% CO2 with 95% humidity. The PDC lines were cultured according to standard operating procedures established by the NCI PDMR (https://pdmr.cancer.gov/sops/default.htm). Briefly, all PDCs were thawed and cultured in Matrigel-coated flasks prepared with a working solution of 1X Ham's F-12 nutrient mix, without supplementation (Invitrogen, Waltham, MA, cat. 11765054), 100 U/mL penicillin-streptomycin (Invitrogen, cat. 15140122), and 2.5% Matrigel (Corning Inc., Corning, NY, cat. 354248) for the first three passages. All PDCs were cultured in complete DMEM/F-12 media containing advanced DMEM/F-12 (Invitrogen, cat. 12634028), 4.9% defined fetal bovine serum, heat inactivated (HyClone Laboratories Inc., Logan, UT, cat. SH30070.03HI), 389 ng/mL hydrocortisone (Sigma-Aldrich, cat. H4001), 9.7 ng/mL human EGF recombinant protein (Invitrogen, cat. PHG0313), 23.4 microg/mL adenine (Sigma-Aldrich, cat. A2786), 97.3 U/mL penicillin-streptomycin (Invitrogen, cat. 15140122), 1.9 mM L-glutamine (Invitrogen, cat. 25030081), and 9.7 microM Y-27632 dihydrochloride (Tocris Bioscience, Bristol, United Kingdom, cat. 1254). The PDCs were cultured in complete DMEM/F12 media without 9.7 microM Y-27632 dihydrochloride for at least two passages prior to the screen. The established cell line HOP-62 was cultured in RPMI 1640 medium, HEPES (Invitrogen, cat. 22400105) with 10% defined fetal bovine serum (HyClone Laboratories Inc., cat. SH30070.03) and 2 mM L-glutamine (Invitrogen, cat. 25030081). The pooled donor HUVEC were cultured in endothelial cell growth medium 2 (PromoCell, Heidelberg, Germany, cat. C-22011) and the hMSC were cultured in mesenchymal stem cell growth medium 2 (PromoCell, cat. C-28009). For all experiments, HUVEC and hMSC were used at passages </=5, while the malignant cell lines were used at passages </=15. […]

The source holds more than one record for some entries. Only these are listed. The source may hold further records. The records of an entry are repeated measurements in other runs, samples, wells, individuals or studies. Dates in brackets are months of testing. Marks such as (2×) count equal records among those shown.
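Further: compound exposure lasted 7 days before the readout.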
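Wherever viability, T/C is given: 100% = DMSO vehicle control viability.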

For the compound `Cn1ncnc1[C@H]1c2n[nH]c(=O)c3cc(F)cc(c23)N[C@@H]1c1ccc(F)cc1`, under “compound alone 0.1 µM”, the viability, T/C is 89.2, 72.7, 83.6, 98.3, 87.1%.
In the case of `CN(C)C/C=C/C(=O)Nc1cc2c(Nc3ccc(F)c(Cl)c3)ncnc2cc1O[C@H]1CCOC1`, the viability, T/C is, setting by setting: (compound alone 0.001 µM) 93.7, 75.1, 79, 107, 95.6%; (compound alone 0.00316 µM) 65.4, 74.8, 90.7, 81.8, 83.4%; (compound alone 0.0316 µM) 73.1, 61.4, 72.6, 104, 98.4%.
`C=CC(=O)N1CCN(c2nc(OCC3CCCN3C)nc3c2CCN(c2cccc4cccc(C)c24)C3)CC1CC#N` (stereo not given): the IC50 was 1.3 µM and > 3.16 µM, 1.35 µM, 1.68 µM, 1.36 µM, 1.23 µM [2021-08]. Besides, the viability, T/C (compound alone 0.0316 µM) was 85.6 (2×), 93.6, 92.9, 84.5, 99.2, 87.9, 89, 115, 91.1, 93.8% [2021-08] and 96.3, 82.7, 88, 88.5, 82.3, 88.9% [2021-09]. Also, the viability, T/C (compound alone 0.1 µM) was 82.3, 85.9, 93.9, 82.7, 87.7, 72, 89.6, 88.1, 96, 93.7, 82.9% [2021-08] and 81.8, 90.5, 90.8, 100, 92.6, 104% [2021-09]. Further, the viability, T/C (compound alone 0.316 µM) was 102, 66.2, 81, 84.7, 85, 84.3, 69.2, 84.4, 90.9, 78.5, 86.8% [2021-08] and 88.5, 73.4, 78.4, 101, 92, 85.2% [2021-09]. Further, the viability, T/C (compound alone 1 µM) was 91.1, 73.1 (2×), 94.6, 67.9, 61.7, 64.7, 89.4, 94.3, 82.7, 94% [2021-08] and 85.6, 77.1, 97.1, 97.7, 71.4, 88.5% [2021-09]. For the same compound, under “compound alone 3.16 µM”, the viability, T/C is 90.5, 0.21, 0.25, 0.27, 0.15, 5.73, 11.6, 0.42, 5.72, 1.27% [2021-08] and 0.33, 7.82, 0.28, 0.99, 0.88, 0.26% [2021-09].
As to `C=CC(=O)N1CCN(c2nc(=O)n(-c3c(C)ccnc3C(C)C)c3nc(-c4c(O)cccc4F)c(F)cc23)C(C)C1` (stereo not given), the viability, T/C is, setting by setting: (compound alone 0.316 µM) 114, 113, 98.2, 86.2, 102, 97.5, 80, 87.4, 79.7, 88.1, 92.5% [2021-08] and 84.3, 93.7, 109, 73.8, 97.8, 93.4% [2021-09]; (compound alone 1 µM) 104, 109, 118, 123, 100, 126, 80, 96.8, 85, 101, 85.6% [2021-08] and 80.5, 96.5, 88, 84.8, 82.6, 105% [2021-09]; (compound alone 3.16 µM) 93.1, 113, 96.4, 122, 104, 116, 71.1, 114, 108, 94.8, 84.8% [2021-08] and 88.6, 89.5, 106, 79.4, 86.8, 88.7% [2021-09]; (compound alone 10 µM) 70.2, 129, 131, 107, 100, 99.2, 85.4, 92.3, 96.9, 98.3, 78.6% [2021-08] and 87.8, 102, 95.6, 104, 96.8, 84.3% [2021-09].
With `CNCc1ccccc1-c1csc(C(C)Nc2nc(C)nc3cc(OC)c(OC)cc23)c1` (stereo not given), the IC50 was 582 nM and 5.69 µM, 1.68 µM, 1.63 µM, 1.59 µM, 844 nM [2021-08]. For the same compound, where the note is “compound alone 0.1 µM”, the viability, T/C was 99.5, 102 (2×), 84.2, 79.2, 91.6, 74.8, 101, 91.3, 74, 85.6% [2021-08] and 87.2, 99.8, 97.7, 65.7, 92.4, 95% [2021-09]. Further, the viability, T/C (compound alone 0.316 µM) was 105, 92.3, 86.2, 84.2, 106, 102, 67.6, 84, 86.8, 74.1, 85.8% [2021-08] and 74.8, 70.5, 74.4, 83.7, 80, 77.4% [2021-09]. Besides, under “compound alone 1 µM”, the viability, T/C is 88.9, 90.7, 90.5, 87.6, 6.78, 41, 55.2, 67.8, 55.8, 53.6, 68.4% [2021-08] and 48.6, 63.7, 64, 58.9, 49.9, 42.8% [2021-09]. The viability, T/C (compound alone 3.16 µM) is 114, 0.4, 0.46, 0.51, 0.3, 0.37, 0.1, 0.14, 0.07, 0.25% [2021-08] and 0.11, 0.09, 0.08, 0.1% [2021-09].
With `COc1cc2nc(C)nc(NC(C)c3cc(N)cc(C(F)(F)F)c3)c2cc1OC1CCOC1` (stereo not given), the half-inhibitory concentration (IC50) is > 10 µM, 5.73 µM, 6.87 µM, 5.16 µM. Also, where the note is “compound alone 0.1 µM”, the viability, T/C is 69.1, 107, 96.4, 90.7, 87.4, 83.7, 69.5, 98.5, 93.5, 91.8, 90.8% [2021-08] and 81.8, 82.7, 77.9, 81.4, 64.4, 85.8% [2021-09]. Besides, the viability, T/C (compound alone 0.316 µM) is 79.5, 100, 73.5, 82.7, 77.8, 91, 77.6, 88.9, 89.4, 95.7, 82.8% [2021-08] and 100, 83, 87.8, 85, 93.3, 88.1% [2021-09]. For the same compound, the viability, T/C (compound alone 1 µM) is 90.5, 61.8, 94.5, 72.8, 87.3, 78.9, 75.7, 111, 83.1, 89.3, 76.6% [2021-08] and 84.3, 87.9, 80, 77.6, 89.3, 87.7% [2021-09]. Besides, the viability, T/C (compound alone 3.16 µM) was 98.8, 81.7, 88.2, 96.4, 87.5, 87.4, 62.2, 85.6, 77.7, 75.8, 77.9% [2021-08] and 80.6, 69, 66.8, 67.6, 88, 63.8% [2021-09]. In addition, the viability, T/C (compound alone 10 µM) is 82.4, 66.8, 90.6, 16.5, 33, 2.47, 0.92, 1.48, 1.24, 0.6, 0.76% [2021-08] and 2.59, 2.56, 1.87, 4.24, 4.66% [2021-09].

The record behind these values is PubChem BioAssay AID1963863 (Molecular Pharmacology Branch, DTP, NCI, 2024).
